Test results as given in paper PMC12136788.
Some of the results follow.

T1: UNK ZnF1-3 (human, UniProt Q9C0B0 31-174)
T1 sequence: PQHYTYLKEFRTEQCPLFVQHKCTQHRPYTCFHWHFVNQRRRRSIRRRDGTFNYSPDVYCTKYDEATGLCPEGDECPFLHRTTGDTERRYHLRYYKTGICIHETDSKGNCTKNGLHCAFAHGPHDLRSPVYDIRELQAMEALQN

B1: 190530966_190531086_581_CDS_ENSG00000138381_ENST00000260952|human|control|control (ssRNA)
RNA: GGGAGUUCUACAGUCCGACGAUCAUUCCAUAGAAACACAUUGCCUCUUUCAUCUUCCACAGGCUGGGUAGUCAAAACACCCCUCAAGUGUAGGACGUGAGCAGAAAAUAAACACUGGUAGUUAACAUCAGACUUUAACAAUUGCAACAGAGGAUUGAGCAUCA
B2: chr1:60041781:60041782:+_ENSMUSG00000041040_ENSMUST00000036540|mus_hu|mus_mus_mus_hu_False|8_38 (ssRNA)
RNA: GGGAGUUCUACAGUCCGACGAUCAAGUUUACAAUAGUAAAGUAAAUGCAGUAGUGGCAAAUUUUCUUUUAUUUUCCUUCACAAAAGAAAAUCUUUAGAUCUCAGUUCUAGUCUUGGACAUAGUGAAUCUCCAUGGGUCUGACUCAACAGAGGAUUGAGCAUCA
B3: chr7:141450121:141450122:+_ENSG00000106028_ENST00000265304|hu_mus|hu_hu_hu_mus_True|8_88 (ssRNA)
RNA: GGGAGUUCUACAGUCCGACGAUCUCAUCCGUUCUAUGCCUUUUCUUUCGUCUGGUCACUCAGAAAUAUAAUGUUAUCAGCUAUGAUUGUUGUUGCUUGCCGCCUCACAUUGUUUUUAUCCAUGUACUCACCAUAGUCCACUUUCAACAGAGGAUUGAGCAUCA
B4: chrX:165757501:165757502:-_ENSMUSG00000031352_ENSMUST00000112115|mus_mus|motif|central (ssRNA)
RNA: GGGAGUUCUACAGUCCGACGAUCAGCAGGAGAAGAUGCUGAGGCACCCAUGGCUGGAAUCACAGGGGUCACUCCCAAUCGGAAAUACCCAGCAAAACGGGAGGCAAGGAGCGGCGAAGGGCAGGAAGCCACCAGUGUUGCCUUCAACAGAGGAUUGAGCAUCA
B5: 48040933_48045964_2092_CDS_ENSG00000138081_ENST00000403359|human|control|control (ssRNA)
RNA: GGGAGUUCUACAGUCCGACGAUCAUUAUAAACUAGAAUUCCACCAUUCUGUCCUCCCCAGAUUUUGUUGCGUCUAAUUUUGGGGUUGCUUCCAGUCCUUAUCUGAACCCCUGAAUACAUAUGAUUAUAGAUAUCAUUGUCUUCCAACAGAGGAUUGAGCAUCA
B6: chr5:173380165:173380166:+_ENSG00000113742_ENST00000334035|hu_hu|FALSE|FALSE (ssRNA)
RNA: GGGAGUUCUACAGUCCGACGAUCCACCCGUUUAUCUAUCUCUCCAUGCUGCAGCUGAACAAAGCGGGCACUGAUAGCAGCUAUGUAACUCUGUUGAUUAGAGAACGCAACUCUCCCAGCUCCUUUUGGGUAUUUUAGCUCAGGCAACAGAGGAUUGAGCAUCA
B7: 6297262_6297599_909_CDS_ENSMUSG00000041164_ENSMUST00000102914|mouse|control|control (ssRNA)
RNA: GGGAGUUCUACAGUCCGACGAUCAGGGCCAGGGGGCUGCCCAGGGCCAGGAGCAUACUGGGCAGUGUUGGCUGCAUACUGGCCUCCUUGCAGAUACUGCUGCCCAGGAUACACCUCUGAGUAGGCUCUCUUGAUCCCCUGUCGCAACAGAGGAUUGAGCAUCA
B8: chr11:4127340:4127341:+_ENSG00000167325_ENST00000300738|hu_mus|hu_hu_hu_mus_False|88_98 (ssRNA)
RNA: GGGAGUUCUACAGUCCGACGAUCGGCAUAGUCAGGGUGCUUAGUAGUCAAGGUUGCGGCUGUCUCAGCAGCCAGGGUGUCCAGUUCCACUGUGGUGACCCCACUAUAUAGGCCUUGGAUUACUUUCAUGGUGAUCUGAGCAGGCAACAGAGGAUUGAGCAUCA
B9: 130459521_130459641_1828_3pUTR_ENSMUSG00000066735_ENSMUST00000051758|mouse|control|control (ssRNA)
RNA: GGGAGUUCUACAGUCCGACGAUCCGCACAGACCUUCCUGGUAGAAUGCAAGUUCAAGUUCUCUGCUUCGUGGUAAGGAAGGGAAGGAGGGAUACUUCUGCCCCAGUUCUACCCACAGAAUGAUUUGGUUUGAGAUUUUAAGACCAACAGAGGAUUGAGCAUCA
B10: chr7:7679991:7679992:-_ENSG00000106399_ENST00000396682|hu_hu|hu_hu_hu_mus_False|38_88 (ssRNA)
RNA: GGGAGUUCUACAGUCCGACGAUCUGGGAUGAAUCUUUUCCAGCUUCCCUACGAAGCACACGGGCCGGUCGAUAUACUGUGGUAACAUGCUGGCGUUGAUGCGCGACUUGGGGAGCUGCAUUAUGUCCUCCAUGAUUCUGCCGCCAACAGAGGAUUGAGCAUCA
B11: chr8:133025090:133025091:+_ENSG00000132294_ENST00000254624|hu_hu|FALSE|FALSE (ssRNA)
RNA: GGGAGUUCUACAGUCCGACGAUCAUAAACAUUAAUUGUAAUGGUUUUCCUUUACAUGCAAUACAUGCAUUUUAAAAUCACUAAGAAACACGAAAUUUUGUAGAGCAAAGUUUGUGUUUCACGUAAGUGCAAAUGAAUAUAUAUCAACAGAGGAUUGAGCAUCA
B12: chr12:42180722:42180723:-_ENSMUSG00000036295_ENSMUST00000043884|mus_hu|mus_mus_mus_hu_True|18_18 (ssRNA)
RNA: GGGAGUUCUACAGUCCGACGAUCCUGUAGGAGAAGAAUCUGUGUGUUAGCUGGCAAUCUGGCUGGGAAAGUUAAAAGACCUAAAUCAUUACAAUCCACUGUAGAUGCUUCCAUAUAGAUGGAUCUCGGUGUAAACCAAGGCCUCAACAGAGGAUUGAGCAUCA
B13: chr2:232320318:232320319:-_ENSG00000115053_ENST00000322723|hu_hu|hu_hu_hu_mus_True|28_68 (ssRNA)
RNA: GGGAGUUCUACAGUCCGACGAUCACUAUUAAAGUCUACAAAACCAAACCCUUUGGAAGAACCAGUUUCCCGGUCAGUGACUAUUCUUGCACGAACAGAGCCCUCAAAUGACUCCUUUAAGGUCUCUUCAGUGGUAUCCUCAGACAACAGAGGAUUGAGCAUCA
B14: chr18:56819859:56819860:+_ENSG00000166562_ENST00000588875|hu_mus|hu_hu_hu_mus_True|38_68 (ssRNA)
RNA: GGGAGUUCUACAGUCCGACGAUCAACCUUGAUUACUCUGUGAACUAUCGGAAUGUCUCUUCCUUCAACUUUAAAAACAACUAUUUCACCAGCUCUGAUUGGGUCUUCCCGGAAAUUCGUGAGGAACAGCAGAUCUCCUCUGUGCAACAGAGGAUUGAGCAUCA

Molecular target: T1, UNK ZnF1-3
Test: nsRBNS (natural sequence RNA bind-n-seq); RBNS binding buffer (assumed for nsRBNS): 25 mM Tris pH 7.5, 150 mM KCl, 3 mM MgCl2, 0.01% Triton X-100, 500 ug/ml BSA, 20 U/ml SUPERase-In, 4 C; UNK is unkempt and MSI1 is Musashi-1; names of the RNAs are library labels; protein concentration not given here; high values mean tight binding

Binder | binding signal
B1 | 1.02 enrichment R
B2 | 0.405 enrichment R
B3 | 0.492 enrichment R
B4 | 1.56 enrichment R
B5 | 0.735 enrichment R
B6 | 0.884 enrichment R
B7 | 0.409 enrichment R
B8 | 0.956 enrichment R
B9 | 1.36 enrichment R
B10 | 0.484 enrichment R
B11 | 0.273 enrichment R
B12 | 0.956 enrichment R
B13 | 0.534 enrichment R
B14 | 0.774 enrichment R
